{"source": "paper PMC6212790", "note": "The list shows a part of the results. At the low end of the ranking the order means little."}
{"molecular_target": "T1, GST-Rok (full length) (UniProt O34857)", "T1 sequence": "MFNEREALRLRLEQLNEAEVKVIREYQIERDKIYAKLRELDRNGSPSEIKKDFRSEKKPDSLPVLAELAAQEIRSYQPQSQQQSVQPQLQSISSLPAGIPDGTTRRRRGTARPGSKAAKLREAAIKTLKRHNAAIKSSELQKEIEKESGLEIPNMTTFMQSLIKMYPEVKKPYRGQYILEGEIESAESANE", "assay": "protein binding microarray;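 further: rank score from −0.5 (least bound) to 0.5 (best bound)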", "details": "Rok is a gene silencer of Bacillus subtilis; high values mean tight binding; most listed sequences are background and not binding sites; double strand, one strand shown", "units": {"binding signal": "E-score"}}
{"sequence": "GCAGCCTA", "binding signal": -0.175}
{"sequence": "ACTAGAAC", "binding signal": 0.296}
{"sequence": "CACGCGGG", "binding signal": -0.285}
{"sequence": "ACCTTGTC", "binding signal": -0.226}
{"sequence": "ATCTAATG", "binding signal": 0.241}
{"sequence": "CAGGCACG", "binding signal": -0.303}
{"sequence": "GCAATGAA", "binding signal": -0.00172}
{"sequence": "AATCCTCC", "binding signal": -0.151}
{"sequence": "AGAGGAAA", "binding signal": -0.149}
{"sequence": "CGGCCGGA", "binding signal": -0.228}
{"sequence": "GCACGCTA", "binding signal": 0.00273}
{"sequence": "CAGGACCG", "binding signal": -0.306}
{"sequence": "AAAACGCC", "binding signal": -0.318}
{"sequence": "CACGACGA", "binding signal": 0.114}
{"sequence": "CTGCGCAC", "binding signal": -0.154}
{"sequence": "AATGGGGC", "binding signal": -0.31}
{"sequence": "AAGAAGAC", "binding signal": -0.162}
{"sequence": "CAAACAGG", "binding signal": -0.0677}
{"sequence": "GTATTACA", "binding signal": 0.169}
{"sequence": "CGCAATCA", "binding signal": 0.0654}
{"sequence": "GTGTTTCA", "binding signal": -0.149}
{"sequence": "AAGGAGTA", "binding signal": -0.163}
{"sequence": "GCAATGCC", "binding signal": -0.158}
{"sequence": "TACAAATA", "binding signal": 0.375}
{"sequence": "AATCGCAA", "binding signal": 0.06}
{"sequence": "AACTCCCG", "binding signal": -0.168}
{"sequence": "TAAGCCAA", "binding signal": 0.0909}
{"sequence": "ACATATAT", "binding signal": 0.378}
{"sequence": "GCCGTCGC", "binding signal": -0.297}
{"sequence": "AGGCGGAA", "binding signal": -0.116}
{"sequence": "CATGTACG", "binding signal": 0.157}
{"sequence": "CGCACAAC", "binding signal": -0.0646}
{"sequence": "GCCGTCCC", "binding signal": -0.415}
{"sequence": "GACAATTA", "binding signal": 0.127}
{"sequence": "CGACACAC", "binding signal": 0.0834}
{"sequence": "CTTTCAAA", "binding signal": -0.0687}
{"sequence": "GCCCGTCA", "binding signal": -0.248}
{"sequence": "CTGCCCAG", "binding signal": -0.241}
{"sequence": "GAACCGCC", "binding signal": -0.165}
{"sequence": "GAAGTGCA", "binding signal": 0.107}
{"sequence": "GTTGGAGA", "binding signal": 0.0244}
{"sequence": "CGGCACTC", "binding signal": -0.275}
{"sequence": "GCCGCTCC", "binding signal": -0.326}
{"sequence": "AAAACAGC", "binding signal": -0.00257}
{"sequence": "AGGGTACG", "binding signal": -0.168}
{"sequence": "TAGGATAA", "binding signal": 0.0932}
{"sequence": "CGGGTTAC", "binding signal": -0.0819}
{"sequence": "GGTGGAAA", "binding signal": -0.0827}
{"sequence": "AAGAAGAT", "binding signal": -0.000369}
{"sequence": "CACGGAAA", "binding signal": -0.0897}
{"sequence": "AATCCATT", "binding signal": 0.054}
{"sequence": "CATTCGTC", "binding signal": -0.0954}
{"sequence": "AGACCAAG", "binding signal": -0.163}
{"sequence": "CTCTGGTA", "binding signal": 0.0688}
{"sequence": "GTCACAAC", "binding signal": -0.0655}
{"sequence": "CCTCCCTA", "binding signal": -0.272}
{"sequence": "AAGAGAGA", "binding signal": -0.129}
{"sequence": "CCAAGTAC", "binding signal": 0.0928}
{"sequence": "ATTACCCA", "binding signal": 0.242}
{"sequence": "AGCCGTGG", "binding signal": -0.223}
{"sequence": "CGTCACAG", "binding signal": 0.031}
{"sequence": "CTTACACC", "binding signal": -0.0193}
{"sequence": "AGATTACG", "binding signal": 0.17}
{"sequence": "GACTACGA", "binding signal": 0.079}
{"sequence": "GGGAATGA", "binding signal": -0.0881}
{"sequence": "ACAACGAT", "binding signal": 0.0956}
{"sequence": "ACTCCCAA", "binding signal": -0.0633}
{"sequence": "AGCTCGGC", "binding signal": -0.0222}
{"sequence": "AACATGTA", "binding signal": 0.285}
{"sequence": "AGTGACCG", "binding signal": -0.0525}
{"sequence": "CGGCCCAC", "binding signal": -0.282}
{"sequence": "ATTACGGG", "binding signal": 0.0739}
{"sequence": "ACCCTTTG", "binding signal": -0.155}
{"sequence": "CCACCACA", "binding signal": 0.0179}
{"sequence": "TAGCTACA", "binding signal": 0.37}
{"sequence": "AGTTGTAA", "binding signal": 0.249}
{"sequence": "GAATTCAA", "binding signal": 0.122}
{"sequence": "AACGCTCG", "binding signal": -0.212}
{"sequence": "CGACCGGC", "binding signal": -0.221}
{"sequence": "GGTTTCCA", "binding signal": -0.2}
{"sequence": "CCCAAGAC", "binding signal": -0.297}
{"sequence": "ATTCGGGG", "binding signal": -0.212}
{"sequence": "CAATGGGG", "binding signal": -0.242}
{"sequence": "CGGCCAGC", "binding signal": -0.377}
{"sequence": "TACGATGA", "binding signal": 0.123}
{"sequence": "CACCCTAG", "binding signal": -0.105}
{"sequence": "GGGCTCGA", "binding signal": -0.233}
{"sequence": "AGTATGAA", "binding signal": 0.204}
{"sequence": "AGACAACC", "binding signal": -0.264}
{"sequence": "CGAAAAGC", "binding signal": 0.0853}
{"sequence": "CATATAGA", "binding signal": 0.133}
{"sequence": "AAGCTATT", "binding signal": 0.142}
{"sequence": "CGCCGATC", "binding signal": -0.248}
{"sequence": "CGGCGCGA", "binding signal": -0.193}
{"sequence": "CTTGTGGA", "binding signal": -0.189}
{"sequence": "AAGGGCGG", "binding signal": -0.307}
{"sequence": "AGTAGATC", "binding signal": 0.324}
{"sequence": "CCCATAAC", "binding signal": 0.0958}
{"sequence": "CGACGTCC", "binding signal": -0.376}
{"sequence": "GAATCGGC", "binding signal": 0.00616}
{"sequence": "GAAGTGTC", "binding signal": -0.145}
{"sequence": "ACGAATAG", "binding signal": 0.0209}
{"sequence": "ATTGGATA", "binding signal": 0.145}
{"sequence": "AGACAGAC", "binding signal": -0.167}
{"sequence": "AGCCATTA", "binding signal": -0.205}
{"sequence": "ACAACGTC", "binding signal": -0.0449}
{"sequence": "ATTAGTTG", "binding signal": 0.334}
{"sequence": "AGCACACG", "binding signal": 0.0226}
{"sequence": "AGAGGGAG", "binding signal": -0.319}
{"sequence": "AGCCGTAC", "binding signal": 0.15}
{"sequence": "GGAGCATA", "binding signal": 0.00366}
{"sequence": "ACTGCTTC", "binding signal": -0.182}
{"sequence": "CCCAAAGG", "binding signal": -0.36}
{"sequence": "CTCTTTGA", "binding signal": -0.07}
{"sequence": "AAATTTGC", "binding signal": 0.127}
{"sequence": "AGGCCGAC", "binding signal": -0.391}
{"sequence": "CTAATCAC", "binding signal": -0.0345}
{"sequence": "TCCATCAA", "binding signal": -0.0208}
{"sequence": "ACCCTTTC", "binding signal": -0.255}
{"sequence": "GTTTGCCA", "binding signal": -0.0833}
{"sequence": "AACGTGTG", "binding signal": 0.125}
{"sequence": "AAAGGCAC", "binding signal": -0.127}
{"sequence": "CTGTGGGC", "binding signal": -0.155}
{"sequence": "ATAAGTTA", "binding signal": 0.204}
{"sequence": "AAAACTAT", "binding signal": 0.433}
{"sequence": "AGTGTTTC", "binding signal": -0.0146}
{"sequence": "AGGGCACC", "binding signal": -0.205}
{"sequence": "ATACTTCA", "binding signal": 0.138}
{"sequence": "CCTAACCC", "binding signal": -0.3}
{"sequence": "AGGTCCTC", "binding signal": -0.0286}
{"sequence": "GAGGTGGA", "binding signal": -0.242}
{"sequence": "GACGGAAC", "binding signal": -0.259}
{"sequence": "CCGACGTA", "binding signal": 0.045}
{"sequence": "CAGGCGTA", "binding signal": -0.0529}
{"sequence": "CTGCATAC", "binding signal": 0.193}
{"sequence": "ACGGCAGC", "binding signal": -0.265}
{"sequence": "AAGCGACA", "binding signal": -0.0731}
{"sequence": "CTGAGGAA", "binding signal": -0.0322}
{"sequence": "ATTGCGTG", "binding signal": 0.0201}
{"sequence": "AACCACTA", "binding signal": 0.15}
{"sequence": "AGAGTCAA", "binding signal": -0.252}
{"sequence": "AAGGGTCA", "binding signal": -0.233}
{"sequence": "AAGCCCTC", "binding signal": -0.331}
{"sequence": "CGCTTAGA", "binding signal": -0.0374}
{"sequence": "AAGGCCAA", "binding signal": -0.342}
{"sequence": "ATCAAAGC", "binding signal": 0.11}
{"sequence": "GCAACACC", "binding signal": -0.07}
{"sequence": "TGCTTACA", "binding signal": -0.0637}
{"sequence": "GGATTCCA", "binding signal": -0.154}
{"sequence": "GGCTGCCA", "binding signal": -0.271}
{"sequence": "GCACAGAA", "binding signal": 0.0896}
{"sequence": "CTCCACGA", "binding signal": -0.0325}
{"sequence": "AGATGGAT", "binding signal": 0.0425}
{"sequence": "GTGCCTTA", "binding signal": -0.0209}
{"sequence": "GCCTCAAC", "binding signal": -0.0374}
{"sequence": "GAAACTGA", "binding signal": 0.0137}
{"sequence": "AGGAACAT", "binding signal": 0.0116}
{"sequence": "CTAGTTTA", "binding signal": 0.383}
{"sequence": "GTTGATGA", "binding signal": 0.0198}
{"sequence": "ACTCCACG", "binding signal": -0.0917}
{"sequence": "AAATGTGT", "binding signal": 0.198}
{"sequence": "ACGCCACG", "binding signal": -0.16}
{"sequence": "GCGCCGCC", "binding signal": -0.453}
{"sequence": "GGTGCACA", "binding signal": -0.0671}
{"sequence": "GTCGATAA", "binding signal": 0.104}
{"sequence": "CAGCAGAC", "binding signal": -0.0507}
{"sequence": "ACAGGCCC", "binding signal": -0.122}
{"sequence": "ACCTACCA", "binding signal": 0.248}
{"sequence": "CGGGTTTC", "binding signal": -0.216}
{"sequence": "CAGAACGC", "binding signal": 0.056}
{"sequence": "AAGTACCG", "binding signal": 0.119}
{"sequence": "GCCTGTAC", "binding signal": -0.0711}
